Screen size: about 310,000 compounds; about 2,200 (0.71%) showed an effect of 50% or more. The effect is printed as a negative number. This is one part of the list.
molecular target: human ether-à-go-go-related gene (hERG) potassium channel (human, UniProt Q12809); test: primary screen, population patch clamp on CHO cells stably expressing hERG
Sequence (Q12809 whole entry, looked up): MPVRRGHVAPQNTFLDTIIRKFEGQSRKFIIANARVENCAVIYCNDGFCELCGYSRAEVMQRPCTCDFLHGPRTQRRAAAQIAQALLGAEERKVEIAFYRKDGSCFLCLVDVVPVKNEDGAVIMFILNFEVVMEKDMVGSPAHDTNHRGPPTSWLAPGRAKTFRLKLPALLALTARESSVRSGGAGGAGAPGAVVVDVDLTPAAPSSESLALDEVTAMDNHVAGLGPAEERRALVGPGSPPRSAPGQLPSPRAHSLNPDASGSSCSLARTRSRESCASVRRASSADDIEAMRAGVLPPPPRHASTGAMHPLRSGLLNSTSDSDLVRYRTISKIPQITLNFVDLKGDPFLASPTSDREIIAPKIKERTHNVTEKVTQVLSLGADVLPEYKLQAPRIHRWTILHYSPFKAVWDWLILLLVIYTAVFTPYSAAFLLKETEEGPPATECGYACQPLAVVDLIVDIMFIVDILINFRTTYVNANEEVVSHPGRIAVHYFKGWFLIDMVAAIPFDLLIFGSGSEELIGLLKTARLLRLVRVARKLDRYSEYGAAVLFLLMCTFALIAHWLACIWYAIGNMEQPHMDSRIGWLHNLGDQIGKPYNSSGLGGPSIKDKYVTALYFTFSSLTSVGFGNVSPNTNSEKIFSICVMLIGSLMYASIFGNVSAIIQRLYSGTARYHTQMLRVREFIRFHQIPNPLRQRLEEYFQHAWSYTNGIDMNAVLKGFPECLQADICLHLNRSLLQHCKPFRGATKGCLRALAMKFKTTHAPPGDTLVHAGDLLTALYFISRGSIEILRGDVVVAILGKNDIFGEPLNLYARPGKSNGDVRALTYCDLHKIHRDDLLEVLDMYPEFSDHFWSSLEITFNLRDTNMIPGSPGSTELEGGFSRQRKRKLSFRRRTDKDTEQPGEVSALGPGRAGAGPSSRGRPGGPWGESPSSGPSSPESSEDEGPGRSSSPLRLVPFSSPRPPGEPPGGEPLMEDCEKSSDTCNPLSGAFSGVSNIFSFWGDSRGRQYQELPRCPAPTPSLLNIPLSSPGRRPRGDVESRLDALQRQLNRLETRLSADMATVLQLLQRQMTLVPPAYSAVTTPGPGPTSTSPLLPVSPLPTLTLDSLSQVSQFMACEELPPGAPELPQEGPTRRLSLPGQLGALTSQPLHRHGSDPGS

Structure (SMILES) | hERG current change (%, negative = inhibition) at 1uM
O=C(NCCC1=CCCCC1)c1ccc(Br)o1 | 4.5%
O=C(Nc1ccc(NC(=O)c2cccs2)c(Cl)c1)c1cccs1 | 13.4%
Cl.NC(Cc1ccccc1)c1nc2ccccc2[nH]1 (stereo not shown) | 24.7%
CCc1c(C)sc(NC(=O)c2cc(-c3ccc(O)cc3)on2)c1C#N | 11.2%
N#Cc1ccccc1OCCOCCNC1CCCC1 | 4.69%
Cc1ccc(O)c(C(CC(=O)NC(C)C)c2ccccc2)c1 (stereo not shown) | 11.8%
COc1cccc(C(C(=O)NC2CCCC2)N(C(=O)c2ccco2)c2ccc(-n3cnnn3)c(C)c2)c1OC (stereo not shown) | 12.9%
COc1ccc(-n2nc3cc(N)c(Br)cc3n2)cc1 | 11.9%
CCc1c(C)sc(NC(NC(C)=O)(C(=O)OC)C(F)(F)F)c1C#N (stereo not shown) | 8.23%
CCn1c(C)c(P(c2ccccc2)c2ccccc2)[n+]2ccccc12.F[B-](F)(F)F | 15.5%
O=C(COc1ccc(Br)cc1Br)NC(=O)NC1CCCC1 | 9.81%
COC(=O)c1ccc(C2NCCc3cc(OC)c(OC)cc32)cc1 (stereo not shown) | 15.4%
CC(C)Cc1cc(C(=O)NCCN2CCOCC2)no1 | -0.983%
O=C(NC12CC3CC(CC(C3)C1)C2)c1ccc(-c2ccc(Br)cc2)o1 | 14.8%
COc1ccc(-c2c(C#Cc3ccsc3)c3cc(-c4ccc(OC)nc4)ccc3n2C)cc1 | 10.8%
CCN(CC)CCN(C(=O)CCS(=O)(=O)c1ccccc1)c1nc2cc3c(cc2s1)OCO3.Cl | -9.14%
Cc1ccccc1OCC(=O)N1CCC2(CC1)CC(=O)c1ccccc1O2 | -10.3%
Cc1ccc(CNC(=O)N2CCN(S(=O)(=O)c3ccccc3)CC2)cc1 | 14%
Cc1cc(=O)[nH]c(SCCc2ccccc2)n1 | -0.381%
Nc1nnc(SCCOc2ccc(Br)cc2)s1 | 11.7%
CCNC(=S)NNC(=O)c1cc(-c2cccnc2)nc2ccccc12 | 13.9%
O=C(c1ccc(CNc2c(N3CCCC3)c(=O)c2=O)cc1)N1CC=C(c2ccccc2)CC1 | -2.51%

Structure (SMILES) | hERG current change (%, negative = inhibition) at 1uM
Cc1ccc(Cn2c(SCCN3CCCCC3)nc3c2c(=O)n(C)c(=O)n3C)cc1 | -67.1%
CC(NC(=O)CN1C(=O)NC2(CCCCC2C)C1=O)c1ccccc1 (stereo not shown) | 5.38%
COc1ccc(CN2C(=O)CC(Cc3ccc(C)cc3)C2=O)cc1OC (stereo not shown) | 10.1%
O=C(CN1C(=O)CSCC1=O)NCc1ccc(F)cc1 | 7.66%
CCOc1ccc(/C=N/NC(=O)Cc2csc(Nc3cccc(C(F)(F)F)c3)n2)cc1 | 10.9%
O=C(C/C=N\O)Nc1ccc(Oc2ccccc2)cc1 | 14.1%
Cc1ccc(S(=O)(=O)NC(C)C(=O)Nc2ccc(C(N)=O)cc2)cc1 (stereo not shown) | 16.7%
Nn1cc(-c2ccccc2)nc1SCC(=O)NCCN1C(=O)CSC1=O | 10.3%
O=C(CCCn1cnc([N+](=O)[O-])n1)Nc1cc(Cl)ccc1O | 6.78%
O=C(Nc1ccccc1)Nc1ccc(Oc2ncnc3cc(Cl)ccc23)nc1 | 12.6%
O=C(CN1C(=O)CCC1=O)Nc1nc(-c2nc3ccccc3s2)cs1 | -4.37%
Cc1cccc(C)c1OCC(O)CN(Cc1ccccc1O)C1CCCCC1 (stereo not shown) | 7.06%
CCCCSc1nnc(-c2ccc(C)cc2)c2ccccc12 | 1.54%
O=c1oc2cc(OCc3c(F)c(F)c(F)c(F)c3F)ccc2cc1-c1ccccn1 | 13%
CCOc1ccccc1-c1nnc(SCC(=O)NC2CC3CCC2C3)n1CC (stereo not shown) | 3.71%
Cc1cc[n+](CC(=O)Nc2nc3ccccc3s2)cc1.[Cl-] | 13.1%
COc1ccc(S(=O)(=O)N2CCCC(C(=O)O)C2)cc1Cl (stereo not shown) | 5.66%
COc1cccc(OC)c1C(=O)Nc1c(C(=O)N2CCN(C)CC2)oc2ccccc12 | -1.69%
O=C(CN1CCN(Cc2ccc3c(c2)OCO3)CC1)NCC(F)(F)F | 11.2%
Cc1ccc(CNC(=O)c2ccc(Cl)cc2[N+](=O)[O-])cc1 | 16.6%
O=C(NNc1cc(N2CCOCC2)nc(N2CCOCC2)n1)c1ccc(Cl)c(Cl)c1 | -17.1%
COc1ccc2c(c1OC)C(=O)N1c3ccccc3C(=O)N(c3ccc(F)cc3)C21 (stereo not shown) | 4.26%

Structure (SMILES) | hERG current change (%, negative = inhibition) at 1uM
Cc1ccc(S(=O)(=O)NCc2ccccn2)c(C)c1C | 4.44%
CCNC(=O)C1CCCN(c2nc(C)cc(C)n2)C1 (stereo not shown) | 1.02%
O=C(O)c1cccc(Nc2ccnc(Nc3cccc(C(=O)O)c3)n2)c1 | 4.72%
CCOc1ccc(S(=O)(=O)N2CC(=O)Nc3ccccc32)cc1 | 13.1%
O=C(O)c1ccccc1C(=O)N1CCN(c2ncccn2)CC1 | 15.7%
CCCn1cnnc1CNC(=O)C1CCC(=O)N(CCCc2ccccc2)C1 (stereo not shown) | 10.2%
O=C1C=C(c2ccc(OC(F)(F)F)cc2)C[C@@H](c2ccc(Cl)cc2)C1 | 12%
CC1CC(C)CN(C(=O)Cn2c(=O)n(CCCCC(=O)NC3CCCC3)c(=O)c3ccccc32)C1 (stereo not shown) | 10.7%
CC(c1cccnc1)N(CCN(C)C)C(=O)Nc1ccc(Cl)c(Cl)c1 (stereo not shown) | -3.96%
COc1ccc(CCC(=O)NCCS(=O)(=O)N2CCN(c3ccccc3F)CC2)cc1 | -14%
Cc1cccc(NC(=O)c2cnc3sccn3c2=O)n1 | 12.3%
Cc1cc(=O)oc2cc(OC(C)C(=O)O)c(Cl)cc12 (stereo not shown) | -4.23%
COCc1ccc(C(=O)N2CCc3c([nH]c4ccccc34)C2c2ccccn2)s1 (stereo not shown) | 9.68%
CCOC(=O)c1c(C)oc2cc(Br)c(OC(=O)N3CCOCC3)cc12 | 2.61%
O=c1ccc(-c2ccc(S(=O)(=O)Nc3cccc([N+](=O)[O-])c3)s2)n[nH]1 | 5.56%
Cc1ccc(NC(=O)NC2CCN(S(=O)(=O)c3ccc(F)cc3)CC2)cc1 | 5.63%
Cc1c([N+](=O)[O-])c([N+](=O)[O-])nn1CC(=O)N1CCCCC1 | 2.69%
COCCCn1c(=O)/c(=C\c2ccccc2OC(F)F)s/c1=C(/C#N)C(N)=O | 6.82%
Clc1ccccc1OCCCOc1cccc2cccnc12 | 12%
Cc1nn(C)c(C)c1S(=O)(=O)N1CCc2ccccc21 | 1.45%
CCc1c(C(=O)N2CCOCC2)csc1C | -3.49%
Nc1nc(N(Cc2ccccc2)Cc2ccccc2)nc(C(F)(F)F)n1 | 3.29%

Structure (SMILES) | hERG current change (%, negative = inhibition) at 1uM
COc1ccccc1N1CCN(C(=O)c2ccc([N+](=O)[O-])s2)CC1 | -12.8%
CC(C)(CNC(=O)c1cc(Cl)c(O)c(Cl)c1)N1CCCCC1 | 11.1%
O=C1C(=O)N(Cc2cccnc2)C(c2cccc(O)c2)/C1=C(\O)c1ccc2c(c1)OCCO2 (stereo not shown) | 9.99%
C[C@H]1CCC[C@@]2(O[C@H](CCO)C[C@H](O)[C@H]2O)O1 | 6.6%
CC1(C)CC(=O)C(C2c3ccccc3Oc3ccccc32)C(=O)C1 | 15%
O=C(CN(C(=O)CCC(=O)Nc1ccccn1)c1ccc2c(c1)OCO2)NCc1ccco1 | -3.07%
COc1ccc(NC(=O)c2cc(-c3cccnc3)nc3c(C)c(C)ccc23)c(OC)c1 | 0.459%
Clc1cccc(OCCCCCN2CCOCC2)c1 | 7.88%
Cc1nc2ccc(NC(=O)c3ccc(=O)[nH]c3)cc2s1 | 17.9%
O=C(NN=C1CCCCC1)c1cc(-c2ccccc2)n[nH]1 | 15.3%
Cc1ccc2[nH]c(C)c(CCNC(=O)c3cc4cc([N+](=O)[O-])ccc4oc3=O)c2c1 | 12.6%
O/N=C\c1cccn1-c1nccs1 | -6.56%
NS(=O)(=O)c1ccc(NC(=O)CSc2ncnc3ccccc23)cc1 | 10.7%
CNC(=S)N1CCN(c2ccccc2OC)CC1 | 14.4%
Cc1nnc(SCC(=O)NCC2CCCO2)n1-c1ccccc1 (stereo not shown) | -0.0954%
Cc1ccccc1C(=O)N1CCC(C(=O)Nc2cc(C(F)(F)F)ccc2N2CCCC2)CC1 | 3.29%
COc1ccc(C(=O)NCC(c2cccs2)N2CCc3ccccc32)c(OC)c1 (stereo not shown) | 10.6%
O=C(COc1ccccc1Cl)Nc1ccc2c(c1)OCCO2 | 9.38%
Cc1nn(-c2ccccc2)c(Cl)c1/C=N/Nc1ccc(Cl)c(C(=O)O)c1 | 11.7%
O=C(OCC(=O)N1CCN(C(=O)c2ccco2)CC1)c1cc(S(=O)(=O)Nc2ccc(Cl)cc2)ccc1O | -4.59%
Cc1cc(NC(=O)CCNS(=O)(=O)c2cc(Br)cnc2N)ccc1Br | 3.77%
Cc1ccc(-c2nc(N)c3c(-c4ccc(C)cc4)nn(C(C)(C)C)c3n2)cc1 | 7.87%

— article PMC4336329 (PLoS ONE, 2015)
